Experimental data as given in the RNAGym collection of RNA variant scans (doi:10.1073/pnas.2313332121).
Variants at the floor of the assay are shown more often than the library holds them.

B1: TPR 5TU (parent)
chain: GGAUCUUCUCGAUCUAACAAAAAAGACAAAUCUGCCACAAAGCUUGAGAGCAUCUUCGGAUGCAGAGGCGGCAGCCUUCGGUGGCGCGAUAGCGCCAACGUUCUCAACUAUGACACGCAAAACGCGUGCUCCGUUGAAUGGAGUUUAUCAUG

Variants of: B1
Assay: polymerase ribozyme fitness, log enrichment relative to wild type (log ratio); higher = more active; in vitro selection for triplet polymerase activity
Summary of the method: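 Frozen incubation at −7 °C formed the core of a single, triplicate in vitro selection round applied to PCR-built, transcribed mutant libraries of each subunit of a heterodimeric triplet polymerase ribozyme. Extended constructs were gel-excised, captured with streptavidin beads and amplified by RT-PCR, and input and output libraries were Illumina-sequenced with a filter of ≥10 input reads and ≥1 read per output. Fitness is the logarithm of genotype enrichment relative to wild-type enrichment, with inverse-variance-weighted replicate averaging, and the logarithm is base 2.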

Polymerase ribozyme fitness (log ratio), ≤ -4.2:
GGAUCUUCUCGAUCUAACAAAAAAGACAAAUCUGCCACAAAGCUUGAGAACAUCUUCGGUUGCAGAGGCGGCAGCCUUCGGGGGGGCGAUAGCGCCAAAGUUCUCAUCUAUGACACGCAAAACGCGUGCUCCGUUGAAUGGAGUUUAUCAUG [G50A A60U U82G C85G C99A A107U]
GGAUCUUCUCGAUCUAACAAAAAAGACAAAUCUGCCACAAAGCUUGAGAACAUCUUCGGAUGCAGAGGCGGCAGCCUUCGGUGGCGAGAUGGCGCCAACGUUCUCAACUAUGACACGCAAAACGCGUGCUCCGUUGAAUGGAGUUUAUCAUG [G50A C87A A91G]
GGAUCUUCUCGAUCUAACAAAAAAGACAAAUCUGCCACAAAGCUUGAGAAAAUCUUCGGAUGCAGAGGCGGCAGCCUUCCAUGGCGCGAUAGCGCCAACGUUCUCAACUAUGACACGCAAAACGCGUGCUCCGUUGAAAGGAGUUUAUCAUA [G50A C51A G80C G81A U139A G152A]
GGAUCUUCUCGAUCUAACAAAAAAGACAAAUCUGCCACAAAGCUUGAGGUCAUCUUCGGAAGCAGAGGCGUCAGCGUUCGGUGGCGCGACAGCGACAACGUUCUCAACUAUGACACGCAAAUCGCGUGCUCCGUUGAAUGGAGUUUAUCAUG [A49G G50U U61A G71U C76G U90C C95A A122U]
GGAUCUUCUCGAUCUAACAAAAAAGACAAAUCUGCCACAAAGCUUGAGUGCAUCUUCGGGAGCAGAGGAGGCAGUCUUCGGUGGCGCGAUAGCGCGAACGUUCUCAACUAUGACACGCAAAACGCGUGCUCCGUUGAAUGGAGUUUAUCAUG [A49U A60G U61A C69A C75U C96G]
GGAUCUUCUCGAUCUAACAAAAAAGACAAAUCUGCCACAAAGCUUGAGUGCAGCUUCGGAUGCCGAGGCGGCAGCCUUCGGUGGCGCGAUAGCGCCAACGUUCUCAACUAUGACACGCAAAACGCGUUCUCCGUUGACUGGAGUUUAUCAUG [A49U U53G A64C G128U A138C]
GGAUCUUCUCGAUCUAACAAAAAAGACAAAUCUGCCACAAAGCUUGAGUGCAUCUUCGGAUGCAAAGGCGGCAGCCUUCGGUGGCGAGUUAGCGCCAACGUUCUCACCUAUGACACGCAAAAGGCGUGCUCCGUUGAAUGGAGUUUAUCAUG [A49U G65A C87A A89U A107C C123G]
GGAUCUUCUCGAUCUAACAAAAAAGACAAAUCUGCCACAAAGCUUGAGUGCAUCUUCGGAUACAGCAGCGGGAGCCUUCGGUGGCGCGAUAGCGCCAACGUUCUCAACUAUGACACGCAAAACGCGUGCUCCGUUGAAUGGAGUUUAUCAUG [A49U G62A A66C G67A C72G]
GGAUCUUCUCGAUCUAACAAAAAAGACAAAUCUGCCACAAAGCUUGAGAACAUCUUCGGAUGCAGAGGCAGCAGACUUCGGUGGCGCGAUAGCGCUAACGUUCUCUACUAUGACACGCAAAACGCGUGCUCCGUUGAAUGGAGUUUAUCAUG [G50A G70A C75A C96U A106U]
GGAUCUUCUCGAUCUAACAAAAAAGACAAAUCUGCCACAAAGCUUGAGUGCAUCUUCGGAUGCAGAGGCGGCAGCCUUCGGGGGGGCGAUAGCUCCAACGUUCUCAACUAUGACACGCAAUACGCGUGCUCCGUUGAGUGGAGUUUAUCAUG [A49U U82G C85G G94U A121U A138G]
GGAUCUUCUCGAUCUAACAAAAAAGACAAAUCUGCCACAAAGCUUGAGGGCAACUUCGGAUGCAGAGGCGGCAGCCUUCGGUGGCGAGAUGGCGCCAACGUUCUCAACUAUGACACGCAAAACGCGUGCUCCGAUGAAUGGAGUUUCUCAUG [A49G U53A C87A A91G U134A A147C]
GGAUCUUCUCGAUCUAACAAAAAAGACAAAUCUGCCACAAAGCUUGAGAACAGCUUCGGAUGCAGAGGCGGCAGCCUUCGGUGGCGCGAUAGGGCCAACGUUCUCAACUAUGACACGCAAAACGCGUGCUCCGUUGAAUGGAGUUUAUCAUG [G50A U53G C93G]
GGAUCUUCUCGAUCUAACAAAAAAGACAAAUCUGCCACAAAGCUUGAGGACAUCUUCGGUUGCAGAGGCGGCAGCCUUCGGUGGCGCGAUAUCGCCAACGUUCUAAACUAUGACACGCAAAACGCGUGCUCCGUUGAAUGGAGUUCAUCAUG [A49G G50A A60U G92U C105A U146C]
GGAUCUUCUCGAUCUAACAAAAAAGACAAAUCUGCCACAAAGCUUGAGUGCAUCUACGGAUGCAGAGGCGGCAGCCUUGGGUGGCGCGAUAGCGCCAACGUUCUCAACUAUGACACGCAAAACGCGUGCUCCGUUGAAUGCAGUUUAUCAUG [A49U U56A C79G G141C]
GGAUCUUCUCGAUCUAACAAAAAAGACAAAUCUGCCACAAAGCUUGAGGGCAUCUUCGGAUGCAGAGGCGGCAGCCUUCGGUUGCGCGAUACCGCCAACGUUCUCAACUAUGACACGCAAAACGCGUGCUCCGUUGAAUGGAGUUAAUCAUG [A49G G83U G92C U146A]
GGAUCUUCUCGAUCUAACAAAAAAGACAAAUCUGCCACAAAGCUUGAGAACAUCUUCGGAUGCAGAGGCGGCAGCGUUCGGUGGGGCGAUAGCGCCAACGUUCUCAACUAUGACACGCAAAACGCGUGCUCCGUUGAAUGGAGUUUAUCAUG [G50A C76G C85G]
GGAUCUUCUCGAUCUAACAAAAAAGACAAAUCUGCCACAAAGCUUGAGUGCAUCUUCGGAUGCAGAGGCGGCGGCCUGCGGUGGCGCGAUGGAGCCAACGUUCUGAACUAUGACACGCAAAACGCGGGCUCCGUUGAAUGGAGUUUAUCAUG [A49U A73G U78G A91G C93A C105G U127G]
GGAUCUUCUCGAUCUAACAAAAAAGACAAAUCUGCCACAAAGCUUGAGUGCAUCUUCGGAUGCAGAGGCGGCAGCCUUCGGUGGCGCGAUAGCGCCAACGUUCUCAACUAUGACACGCAAAACGCGUGCUCCGUUGACUGGAGUUUAUCAUG [A49U A138C]
GGAUCUUCUCGAUCUAACAAAAAAGACAAAUCUGCCACAAAGCUUGAGUGCAUCUACGGAUGCAGAGGCGGCAGCCUUCGGUGUGGGGAUAGCGCCAACGUUCUCAACUUAGACACGCAAAACGCGUGCUACGUUGAAUGGAGUUUAUCAUG [A49U U56A G84U C85G C87G A110U U111A C131A]
GGAUCUUCUCGAUCUAACAAAAAAGACAAAUCUGCCACAAAGCUUGAGAACAUGUUCGGAUGCAGAGGCGGCAGCCUUCGGUUGCGCGAUAGCGCUAACGUUCUCAACUCUGACACGCAAAACGCGUGCUCCGUUGAAUGGAGUUUAUCAUG [G50A C54G G83U C96U A110C]
GGAUCUUCUCGAUCUAACAAAAAAGACAAAUCUGCCACAAAGCUUGAGUGCAUCUUCGGAUGCAGAGGCGGCAGCCUUUGGUGGCGCGAUAGCGCCAACGUUCUCAACUAUGACACGCAAAACGCGUGCUCCGUUGAAUGGAGUUUAUCAUG [A49U C79U]
GGAUCUUCUCGAUCUAACAAAAAAGACAAAUCUGCCACAAAGCUUGAGAACAUCAUCGGAUGCAGAGGCGGCAGCCUUCGGUGGGGCGAUAGCGCCAACGUUCUGAACUAUGACACGCAAAACGCGUGCUCGGUAGAAUGGAGUUUAUCAUG [G50A U55A C85G C105G C132G U135A]
GGAUCUUCUCGAUCUAACAAAAAAGACAAAUCUGCCACAAAGCUUGAGGGCAUCUUCGGAUGCAACGGCGGCAGCCUUUGGUGUCGCGAUAGCGCCAACGGUCUCAACUAUGACACGCAAAACGCGUGCUCCGUUGAAUGGAGUUUAUCAUG [A49G G65A A66C C79U G84U U101G]
GGAUCUUCUCGAUCUAACAAAAAAGACAAAUCUGCCACAAAGCUUGAGAAUAUCUUCGUCUGCAGAGGCGGCAGCCUUCGGUGGUGCGAUAGAGCCAACGUUCUCAACUAUGACACGCAAAACGCGUGCUCCGUUGAAUGGAGUUUAUAAUG [G50A C51U G59U A60C C85U C93A C149A]
GGAUCUUCUCGAUCUAACAAAAAAGACAAAUCUGCCACAAAGCUUGAGAACGUCUUCGGAUGCAGAGGCGGCAGCCUUCGGUGGCGCGAUAGGGCCAACGUUCUCAACUAUGACACGCAAAACGCGUGCUCCGUUGAAUGGAGUUUAACAUG [G50A A52G C93G U148A]
GGAUCUUCUCGAUCUAACAAAAAAGACAAAUCUGCCACAAAGCUUGAGAACAUCUUCGGAUGCAGAGGCGGCAGCUUUCGGUGGGGCGAUAGCGCCAACGUUCUCUACUAUGACACGCGAAACGCGUGCUCCGUUUAAUGGAGUUUAUCAUG [G50A C76U C85G A106U A119G G136U]
GGAUCUUCUCGAUCUAACAAAAAAGACAAAUCUGCCACAAAGCUUGAGAACAUCUUCGGAUGCAGAGGCGGCAGCCUUCGGUGGCGCUAUAGCGCCAACGUUCUCAACUAUGACACGCAAAACGCGUGCUCCCUUGAAUGGAGUUUAUCAUG [G50A G88U G133C]
GGAUCUUCUCGAUCUAACAAAAAAGACAAAUCUGCCACAAAGCUUGAGUGCAUCUUCGGAUGCAGAGGCGGCAGCCUUCGGUCGCGCGAUAGCGCCAACGUUCUCUACUAUGACAGGCAAAAAGCGUGCUCCUUUGAAUGGAGUUUAUGAUG [A49U G83C A106U C116G C123A G133U C149G]
GGAUCUUCUCGAUCUAACAAAAAAGACAAAUCUGCCACAAAGCUUGAGUGCAUCUUCGGAUGCAGUGGCGGCAGCCUUCGGUGGCGUGAUAGUGCCAUCGUUCUCAAGUAUGACACGCAAAACGCGUGCUCCGUUGAAUGGAGUUUAUCAUG [A49U A66U C87U C93U A98U C108G]
GGAUCUUCUCGAUCUAACAAAAAAGACAAAUCUGCCACAAAGCUUGAGUGCAUCUUCGGAUGCAGAGGCGGCAGCCUUCGGUGGCGCGAUAGCGCCAACGUGCUCAACUAUGACACGCAAAACGCGUGCUCCGUUGAAUGGAGUUUCGCAUG [A49U U102G A147C U148G]
GGAUCUUCUCGAUCUAACAAAAAAGACAAAUCUGCCACAAAGCUUGAGAACAUCUUCGGUUGAAGAGGCGGCAGCCUUCGGUGUCGCGAUAGCGCCAACGUUCUCAACUAAGAUACGCAAAACGCGUGCUCCGUUGAAUGGAGUUUAUCAUG [G50A A60U C63A G84U U111A C114U]
GGAUCUUCUCGAUCUAACAAAAAAGACAAAUCUGCCACAAAGCUUGAGGGCAUCUUCGGAUGCAGAGGCGGCAGCCUUCGGUGGGGCGAUCGCGCCAACGUUCUCAACUAUGACACGCAAAACGCGUGUUCCGUUGAAUGGAGUUUAUCAUG [A49G C85G A91C C129U]
GGAUCUUCUCGAUCUAACAAAAAAGACAAAUCUGCCACAAAGCUUGAGUGCGUCUUCGGAUGCAGAGGCGGCAGCCUUCGGUGGCGCGAUAGAGCCAUCGUUCUCAACUAUGACACGCAAAGCGCGUGCUCCGUUGAAUCGAGUUUAUCACG [A49U A52G C93A A98U A122G G140C U151C]
GGAUCUUCUCGAUCUAACAAAAAAGACAAAUCUGCCACAAAGCUUGAGAACAUCUUCGGAUGCAGAGGCGGCAGCCUUCGGUGGCGCGAUAGCGGCUACGUUCUCAACUAUGACACGCAAAACGCGUGCUCCGUUGACCGGAGUUUAUCAUG [G50A C95G A97U A138C U139C]
GGAUCUUCUCGAUCUAACAAAAAAGACAAAUCUGCCACAAAGCUUGAGAACAUCUUCGGAUGCAGAGCCGGCAGCCUUUGGUGGCGCGAUAUCGCCUACGUUCUCAACUAUGACACGCAAAACGCGUGCUCCGUUGAAUGGAGUUUAUCAUG [G50A G68C C79U G92U A97U]
GGAUCUUCUCGAUCUAACAAAAAAGACAAAUCUGCCACAAAGCUUGAGUGCAUCUUCGGAUGCAGAGGCGGCAGCCUUCGGUGGCGUGAUAGCGCCAACGUUCUCAACUAUGACACGCAAAACGCGUGCACCGUUGAAUGGAGUUUAUCAUG [A49U C87U U130A]
GGAUCUUCUCGAUCUAACAAAAAAGACAAAUCUGCCACAAAGCUUGAGAACAUCUUCGGAUGCAGAGGCGGCAGCCUUCGGUGGCGCGAUAGCGCCAACGUUCUCAAGUAUGACACGCAAAACGCGUGCUCCGUUGAAUGUAGUUUAUCGUG [G50A C108G G141U A150G]
GGAUCUUCUCGAUCUAACAAAAAAGACAAAUCUGCCACAAAGCUUGAGGGCAUCUUCGGAUGCAGAAGCGGCAGCCUUCGGUGGCGCGAUAGCGCCAACGUUCUCAACUAUGACACGCAAAACCCGUGCUCCGUUGAAUGGAGUUUAUCAUG [A49G G67A G124C]
